For one molecule, binding results are on record in PMC9925316.

Amino acid sequences for entries named in this document (tags omitted).
UniProt P15559: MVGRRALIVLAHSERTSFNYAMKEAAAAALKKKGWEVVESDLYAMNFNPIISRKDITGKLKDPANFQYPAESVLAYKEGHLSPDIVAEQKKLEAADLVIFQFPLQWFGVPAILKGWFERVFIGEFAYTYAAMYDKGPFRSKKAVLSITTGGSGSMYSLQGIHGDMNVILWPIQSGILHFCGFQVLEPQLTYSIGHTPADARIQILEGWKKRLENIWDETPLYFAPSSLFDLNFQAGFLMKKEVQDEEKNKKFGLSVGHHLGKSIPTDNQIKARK

In this test the target is NQO1 protein (UniProt P15559). Briefly: mobility shift on non-reducing SDS-PAGE with silver staining; NQO1 protein reacted with increasing concentrations of DBD peptide; electrophoresis on reducing and non-reducing gels; silver staining; both purified.

These are yes or no findings as the source states them, for the method shown. Some binding calls cover weakened binding; strength is not graded here.

EEKRRIRRERNKMAAAKCRNRRRELT (N-terminal acetyl (Ac-); C-terminal amide (-NH2)) [NQO1-binding c-Fos (DBD) peptide]: the binding result was “binds”.
